Experimental data from the supplement of paper PMC8728848.
Some of the results follow.

How the values were obtained:
Experiment in all cases: glycan array binding signal (z-score within array); higher = stronger binding
Conditions in all cases: glycan notation: IUPAC condensed, linker removed; mutation: H262T
[1] = target: Gal(b1-3)GalNAc(b1-3)Gal
Summary of the method: (§1)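 Negative Z-scores can be read as non-binding. The Z-score is calculated within each array and then averaged across arrays of one protein sequence at different concentrations or buffers and across linkers. Arrays, 3228 in all, were curated from the Consortium for Functional Glycomics database and kept only where the protein sequence was available.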

[2] = target: Gal(b1-3)GalNAc(b1-3)Gal(a1-4)Gal(b1-4)Glc
Summary of the method: as §1

[3] = target: Gal(b1-3)GalNAc(b1-4)Gal(b1-4)Glc
Summary of the method: as §1

[4] = target: Gal(b1-3)GalNAc(b1-4)[Neu5Ac(a2-3)]Gal(b1-4)Glc
Summary of the method: as §1

[5] = target: Gal(b1-3)GlcNAc
Summary of the method: as §1

[6] = target: Gal(b1-3)GlcNAc(a1-3)Gal(b1-4)GlcNAc
Summary of the method: as §1

[7] = target: Gal(b1-3)GlcNAc(a1-6)Gal(b1-4)GlcNAc
Summary of the method: as §1

[8] = target: Gal(b1-3)GlcNAc(b1-2)Man
Summary of the method: as §1

[9] = target: Gal(b1-3)GlcNAc(b1-2)Man(a1-3)[Gal(b1-3)GlcNAc(b1-2)Man(a1-6)]Man(b1-4)GlcNAc(b1-4)GlcNAc
Summary of the method: as §1

[10] = target: Gal(b1-3)GlcNAc(b1-2)Man(a1-3)[Gal(b1-3)GlcNAc(b1-2)Man(a1-6)]Man(b1-4)GlcNAc(b1-4)[Fuc(a1-6)]GlcNAc
Summary of the method: as §1

[11] = target: Gal(b1-3)GlcNAc(b1-2)Man(a1-3)[GlcNAc(b1-4)][Gal(b1-3)GlcNAc(b1-2)Man(a1-6)]Man(b1-4)GlcNAc(b1-4)GlcNAc
Summary of the method: as §1

[12] = target: Gal(b1-3)GlcNAc(b1-2)[Gal(b1-3)GlcNAc(b1-6)]Man(a1-6)[Gal(b1-3)GlcNAc(b1-2)Man(a1-3)]Man(b1-4)GlcNAc(b1-4)GlcNAc
Summary of the method: as §1

[13] = target: Gal(b1-3)GlcNAc(b1-3)Gal(b1-3)GlcNAc
Summary of the method: as §1

[14] = target: Gal(b1-3)GlcNAc(b1-3)Gal(b1-4)Glc
Summary of the method: as §1

[15] = target: Gal(b1-3)GlcNAc(b1-3)Gal(b1-4)GlcNAc
Summary of the method: as §1

[16] = target: Gal(b1-3)GlcNAc(b1-3)Gal(b1-4)GlcNAc(b1-2)Man(a1-3)[Gal(b1-3)GlcNAc(b1-3)Gal(b1-4)GlcNAc(b1-2)Man(a1-6)]Man(b1-4)GlcNAc(b1-4)GlcNAc
Summary of the method: as §1

[17] = target: Gal(b1-3)GlcNAc(b1-3)Gal(b1-4)GlcNAc(b1-2)[Gal(b1-3)GlcNAc(b1-3)Gal(b1-4)GlcNAc(b1-6)]Man(a1-6)[Gal(b1-3)GlcNAc(b1-3)Gal(b1-4)GlcNAc(b1-2)Man(a1-3)]Man(b1-4)GlcNAc(b1-4)[Fuc(a1-6)]GlcNAc
Summary of the method: as §1

[18] = target: Gal(b1-3)GlcNAc(b1-3)Gal(b1-4)GlcNAc(b1-3)Gal(b1-4)GlcNAc(b1-2)[Gal(b1-3)GlcNAc(b1-3)Gal(b1-4)GlcNAc(b1-3)Gal(b1-4)GlcNAc(b1-6)]Man(a1-6)[Gal(b1-3)GlcNAc(b1-3)Gal(b1-4)GlcNAc(b1-3)Gal(b1-4)GlcNAc(b1-2)Man(a1-3)]Man(b1-4)GlcNAc(b1-4)[Fuc(a1-6)]GlcNAc
Summary of the method: as §1

[19] = target: Gal(b1-3)GlcNAc(b1-3)Gal(b1-4)GlcNAc(b1-6)[Gal(b1-3)GlcNAc(b1-3)]Gal(b1-4)Glc
Summary of the method: as §1

[20] = target: Gal(b1-3)GlcNAc(b1-3)Gal(b1-4)[Fuc(a1-3)]GlcNAc
Summary of the method: as §1

[21] = target: Gal(b1-3)GlcNAc(b1-3)Gal(b1-4)[Fuc(a1-3)]GlcNAc(b1-6)[Gal(b1-3)GlcNAc(b1-3)]Gal(b1-4)Glc
Summary of the method: as §1

[22] = target: Gal(b1-3)GlcNAc(b1-3)GalNAc
Summary of the method: as §1

[23] = target: Gal(b1-3)GlcNAc(b1-6)Gal(b1-4)GlcNAc
Summary of the method: as §1

[24] = target: Gal(b1-3)GlcNAc(b1-6)GalNAc
Summary of the method: as §1

[25] = target: Gal(b1-3)GlcNAc(b1-6)[Gal(b1-3)]GalNAc
Summary of the method: as §1

[26] = target: Gal(b1-3)GlcNAc6S
Summary of the method: as §1

[27] = target: Gal(b1-3)[Fuc(a1-4)]GlcNAc
Summary of the method: as §1

[28] = target: Gal(b1-3)[Fuc(a1-4)]GlcNAc(b1-2)Man
Summary of the method: as §1

[29] = target: Gal(b1-3)[Fuc(a1-4)]GlcNAc(b1-2)Man(a1-3)[Gal(b1-3)[Fuc(a1-4)]GlcNAc(b1-2)Man(a1-6)]Man(b1-4)GlcNAc(b1-4)[Fuc(a1-6)]GlcNAc
Summary of the method: as §1

[30] = target: Gal(b1-3)[Fuc(a1-4)]GlcNAc(b1-3)Gal(b1-3)[Fuc(a1-4)]GlcNAc
Summary of the method: as §1

[31] = target: Gal(b1-3)[Fuc(a1-4)]GlcNAc(b1-3)Gal(b1-4)[Fuc(a1-3)]GlcNAc
Summary of the method: as §1

[32] = target: Gal(b1-3)[Fuc(a1-4)]GlcNAc(b1-6)GalNAc
Summary of the method: as §1

[33] = target: Gal(b1-3)[GlcNAc(b1-6)]GalNAc
Summary of the method: as §1

[34] = target: Gal(b1-3)[Neu5Ac(a2-6)]GalNAc
Summary of the method: as §1

[35] = target: Gal(b1-3)[Neu5Ac(a2-6)]GlcNAc(b1-4)Gal(b1-4)Glc
Summary of the method: as §1

[36] = target: Gal(b1-3)[Neu5Ac(b2-6)]GalNAc
Summary of the method: as §1

[37] = target: Gal(b1-4)Gal
Summary of the method: as §1

[38] = target: Gal(b1-4)GalNAc(a1-3)[Fuc(a1-2)]Gal(b1-4)GlcNAc
Summary of the method: as §1

B1: MGL6A (Homo sapiens) (protein)
chain: MTRTYENFQYLENKVKVQGFKNGPLPLQSLLQRLCSGPCHLLLSLGLGLLLLVIICVVGFQNSKFQRDLVTLRTDFSNFTSNTVAEIQALTSQGSSLEETIASLKAEVEGFKQERQAVHSEMLLRVQQLVQDLKKLTCQVATLNNNGEEASTEGTCCPVNWVEHQDSCYWFSHSGMSWAEAEKYCQLKNAHLVVINSREEQNFVQKYLGSAYTWMGLSDPEGAWKWVDGTDYATGFQNWKPGQPDDWQGHGLGGGEDCAHFTPDGRWNDDVCQRPYHWVCEAGLGQTSQESH
In the case of B1, the “glycan array binding signal (z-score)” value [1] is reported as -0.168, the “glycan array binding signal (z-score)” value [2] is reported as -0.166 and the “glycan array binding signal (z-score)” value [3] is reported as -0.164. The “glycan array binding signal (z-score)” value [4] was -0.156, the “glycan array binding signal (z-score)” value [5] was -0.173 and the “glycan array binding signal (z-score)” value [6] was -0.173. For the same binder, the “glycan array binding signal (z-score)” value [7] was -0.176, the “glycan array binding signal (z-score)” value [8] was -0.172 and the “glycan array binding signal (z-score)” value [9] was -0.171. For the same binder, the “glycan array binding signal (z-score)” value [10] was -0.17, the “glycan array binding signal (z-score)” value [11] was -0.174 and the “glycan array binding signal (z-score)” value [12] was -0.198. For the same binder, the “glycan array binding signal (z-score)” value [13] was -0.175, the “glycan array binding signal (z-score)” value [14] was -0.173 and the “glycan array binding signal (z-score)” value [15] was -0.177. For the same binder, the “glycan array binding signal (z-score)” value [16] was -0.171, the “glycan array binding signal (z-score)” value [17] was -0.09 and the “glycan array binding signal (z-score)” value [18] was -0.161. For the same binder, the “glycan array binding signal (z-score)” value [19] was -0.17, the “glycan array binding signal (z-score)” value [20] was -0.176 and the “glycan array binding signal (z-score)” value [21] was -0.176. The “glycan array binding signal (z-score)” value [22] was -0.173, the “glycan array binding signal (z-score)” value [23] was -0.179 and the “glycan array binding signal (z-score)” value [24] was 6.2. The “glycan array binding signal (z-score)” value [25] was -0.16, the “glycan array binding signal (z-score)” value [26] was -0.176 and the “glycan array binding signal (z-score)” value [27] was -0.176. The “glycan array binding signal (z-score)” value [28] was -0.169, the “glycan array binding signal (z-score)” value [29] was -0.166 and the “glycan array binding signal (z-score)” value [30] was -0.176. The “glycan array binding signal (z-score)” value [31] was -0.173, the “glycan array binding signal (z-score)” value [32] was -0.086 and the “glycan array binding signal (z-score)” value [33] was -0.158. For the same binder, the “glycan array binding signal (z-score)” value [34] was -0.176, the “glycan array binding signal (z-score)” value [35] was -0.177 and the “glycan array binding signal (z-score)” value [36] was -0.178. The “glycan array binding signal (z-score)” value [37] was -0.186 and the “glycan array binding signal (z-score)” value [38] was -0.175.
